In PubChem BioAssay AID1508642 (National Center for Advancing Translational Sciences (NCATS), 2021):
Hit rate of the full screen: of about 43,000 compounds, about 200 (0.47%) were called active. Inconclusive results (about 12%) are left out. Calls follow the shape of the dose curve; as a rule, active = well fitted cell-killing curve with a large enough effect; inconclusive = small, poorly fitted or top-dose-only effect, or effect the other way; inactive = flat fitted curve, though single readings scatter. This is one part of the list.

experiment: Cell viability qHTS assay in S16 Pmp22-F2sN cells; details: S16 Pmp22-F2sN Schwann cells (luciferase reporters placed in the Pmp22 gene) viability, CellTiter-Glo, 24 h; series mostly up to 57.5 µM; activity change, negative = cytotoxicity: at the top concentration; also: nearly all actives have a fitted effect of over 65% in size
Summary of the method: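 Rat S16 Schwann reporter line, 24 h treatment with library compounds delivered at 23 nL per well. Cell viability by CellTiter-Glo luminescence.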
% is scaled to controls: 0 for no effect and ±100 for the full control effect.

SMILES	activity change, negative = cytotoxicity
Brc1ccc(CN2CCc3nc(Nc4ccccc4)ncc3C2)s1	inactive: -13.8%
COc1cccc(CNC(=O)Nc2cn(CC(C)C)c(=O)c3ccccc23)c1	inactive: 5.81%
COc1ccc(-c2oc3ncn4nc(-c5ccccc5OC)nc4c3c2-c2ccc(OC)cc2)cc1	inactive: -2.01%
OCCN1CCN(c2ncnc3c2cnn3-c2cccc(Cl)c2)CC1	inactive: 2.58%
COc1cc(OC)cc(-n2c(=O)c3sccc3n(Cc3cc(=O)n4c(C)cccc4n3)c2=O)c1	inactive: -29.8%
CCOc1ccc(-n2c(-c3ccc(Br)cc3)cc3c2CC(C)(C)CC3=O)cc1	inactive: 17.3%
CCOC(=O)c1cc(-c2ccc(F)cc2)n(CCC(=O)Nc2nc3cc(C)c(C)cc3s2)c1C	inactive: 11%
Cc1nnc2c3ccccc3nc(Nc3ccc(F)cc3Cl)n12	inactive: -5.14%
Cc1nc(N2CCCC2)ncc1C(=O)Nc1ccc(OC(F)(F)F)cc1	inactive: -2.97%
Cc1ccc(NC(=O)Cn2c(=O)ccc3cc(S(=O)(=O)N4CCCC4)ccc32)cc1C	inactive: 4.24%
Cc1c(C(=O)N2CCC(C(=O)Nc3ccc(F)c(Cl)c3)CC2)sc2nc[nH]c(=O)c12	inactive: -10.2%
CC(C)c1ccc(-c2noc(SCC(=O)N3CCN(c4ccccc4F)CC3)n2)cc1	inactive: 17.8%
O=C(NCc1cccs1)c1ccc2c(c1)sc1nc(-c3ccccc3)cn12	inactive: 6.49%
COc1ccc(Cn2ccn(CC(=O)Nc3cc(C)ccc3C)c(=O)c2=O)cc1	inactive: 0.945%
COc1ccc(-c2cn3cccnc3n2)cc1NC(=O)c1ccccc1C(F)(F)F	inactive: 3.41%
COc1ccc2c(c1)c(=O)c(C(=O)c1ccc(F)cc1)cn2CC(=O)Nc1ccc2c(c1)OCCO2	inactive: -11.3%
Cc1cc2nn(-c3ccc(F)cc3)nc2cc1NC(=O)c1ccc(C(C)(C)C)cc1	inactive: 19.5%
COc1cc(CN(C(=O)c2ccccc2)c2ccccn2)cc(OC)c1OC	inactive: -17.3%
COc1cc(C(=O)Nc2cc(C)c(O)c(-c3nc4cc(Cl)ccc4o3)c2)cc(OC)c1OC	inactive: 7.99%
CCN(CC)C(=O)c1sc2c(c1C)c(=O)n(-c1ccccc1)c(=O)n2CC(=O)N(CC)c1cccc(C)c1	inactive: -20.9%
Cc1ccc(CNC(=O)c2ccc3c(c2)NC(=O)C(CS(=O)(=O)Cc2cccc(C)c2)N3)cc1 (stereo unspecified)	inactive: -5.32%
COc1cc(NC(=O)CCS(=O)(=O)c2ccc(Br)cc2)cc(OC)c1	inactive: -4.04%
CN(C(=O)CSc1nncn2c1cc1occc12)c1ccccc1	inactive: 3.5%
CCCCN(C)C(=O)CN1C(=O)c2cccnc2Oc2ccc(Cl)cc21	inactive: 7.14%

SMILES	activity change, negative = cytotoxicity
CCCOc1ccc(C(=O)N(Cc2ccc(Cl)cc2)Cc2ccco2)cc1	inactive: -5.74%
Cc1cc(NC(=O)c2cnn(-c3ccccc3)c2-n2cccc2)ccc1Br	inactive: -19.2%
Cc1ccc(OCCn2c(CNc3ccccc3C)nc3ccccc32)cc1	inactive: -5.1%
N#CC1=C(N)N(c2ccc(Cl)cc2)C2=C(C(=O)CCC2)C1c1cc(CN2CCOCC2)cs1 (stereo unspecified)	inactive: 0.914%
O=C(NC1CCCCC1)c1ccc2c(c1)N(Cc1ccc(F)cc1)C(=O)c1ccccc1S2(=O)=O	inactive: -26.3%
Cc1cccc(N(C)C(=O)C2CCC(CNS(=O)(=O)c3cccc4nsnc34)CC2)c1 (stereo unspecified)	inactive: 3.16%
COc1ccc(-c2csc3ncnc(Nc4ccc(OC)cc4OC)c23)cc1	inactive: -21.3%
COc1cccc(-c2nc3c(C#N)c[nH]n3c2NC2CCCCC2)c1	inactive: -11.5%
CCc1cccc(NC(=O)Cn2c(=O)n(CC3CCC(C(=O)NC)CC3)c(=O)c3sccc32)c1 (stereo unspecified)	inactive: -6.5%
COc1cccc(CNC(=O)CN(c2ccc(C)cc2)S(=O)(=O)N(C)C)c1OC	inactive: 7.49%
COc1cc(-c2noc(-c3cc4cccc(C)c4oc3=O)n2)cc(OC)c1OC	inactive: 12%
CCCSC1=NC2(CCN(C(=O)NC3CCCCC3)CC2)N=C1c1ccc(OC)cc1	inactive: -14.1%
O=c1c2c3c(sc2nnn1CCCCOc1ccc(Cl)cc1)CCCC3	inactive: -0.87%
N#C/C(=C/c1ccc(O)cc1)c1nc(-c2ccc(-c3ccccc3)cc2)cs1	inactive: 25.9%
CCOc1ccccc1-n1c(N)c(C(=O)OC)c2nc3ccccc3nc21	inactive: 6.28%
COc1ccc(-c2nsc(NC(=O)c3oc4ccc(Cl)cc4c3C)n2)cc1	inactive: 16.9%
O=C(Nc1ccc(F)cc1)c1nc(SCc2ccccc2F)ncc1Cl	inactive: 4.18%
COc1ccc(C(C)NC(=O)CN(c2cc(OC)ccc2OC)S(=O)(=O)c2ccccc2)cc1 (stereo unspecified)	inactive: 2.56%
CC1CCN(CCCNC(=O)CN2C(=O)CSc3ccc(S(=O)(=O)N4CCCCC4)cc32)CC1	inactive: -13.2%
COc1cccc(-n2ccnc2SCC(=O)Nc2cccc3ccccc23)c1	inactive: -10.3%
COc1ccc(-n2c(CC3C(=O)Nc4ccc(C)cc43)nc3ccccc3c2=O)cc1 (stereo unspecified)	inactive: -0.732%
O=C(NCc1ccccc1Cl)c1ccc2c(c1)ncn2-c1cccc(F)c1	inactive: -0.316%
Brc1cccc(-c2nn(-c3ccccc3)c3c2cnc2cc4c(cc23)OCO4)c1	inactive: 19.6%
O=C(c1cccs1)N1CCCc2cc(NS(=O)(=O)c3ccc(Br)cc3)ccc21	inactive: -22.4%

SMILES	activity change, negative = cytotoxicity
CCc1cccc(C)c1NC(=O)C1CCN(S(=O)(=O)c2cc(Br)cc3c2N(C(C)=O)CC3)CC1	inactive: 11.7%
COc1ccc(NC(=O)Nc2cccc(-c3noc(C)n3)c2)cc1	inactive: -1.88%
Cc1ccc(C)c(CN2CCC(CNC(=O)C(CC(C)C)N3Cc4ccccc4C3=O)CC2)c1 (stereo unspecified)	inactive: -17.1%
COCCn1c(CNC(=O)c2ccccc2C)nc2cccnc21	inactive: 7.36%
CCc1ccc(C2c3c(-c4cc(C)ccc4O)n[nH]c3C(=O)N2CCO)cc1 (stereo unspecified)	inactive: 6.06%
COc1ccc(NC(=O)CCCS(=O)(=O)c2nc(-c3ccccc3OC)cc(C(F)(F)F)n2)c(OC)c1	inactive: 25.1%
CC1=C(c2ccc(C(C)C)cc2)S(=O)(=O)NC1=NCc1ccc(OC(C)C)cc1	inactive: 1.7%
CCCSc1nc2sc3c(c2c(=O)n1-c1ccc(C)cc1)CCCC3	inactive: 11.6%
CCOC(=O)c1c(S(=O)(=O)NCC(=O)Nc2cccc(SC)c2)c(C)n(C)c1C	inactive: 6.4%
Cc1ccc(C(=O)NCC(=O)OCc2cc(=O)n3nc(C4CC4)sc3n2)cc1	inactive: 11%
O=C(Nc1cccc(-c2nc3ccccc3[nH]2)c1)c1c(F)cccc1F	inactive: -11.9%
COc1ccc(S(=O)(=O)Cc2ccc(C(=O)N3CCN(c4cc(C)ccc4C)CC3)o2)cc1	inactive: 12.8%
O=C(O)c1cccnc1SCc1cccc(Cl)c1	inactive: 1.5%
CCSc1ncc(Cl)c(C(=O)N(Cc2ccc(C(C)(C)C)cc2)C2CCS(=O)(=O)C2)n1 (stereo unspecified)	inactive: -22.4%
COc1ccc2c(c1)c1c(c(=O)n(Cc3ccccc3)c(=O)n1Cc1ccccc1)n2C	inactive: -0.316%
CCCNC(=O)c1c(NC(=O)c2ccc(C)cc2)sc2c1CCCCC2	inactive: -0.568%
CC(=O)N1CCOc2cc(S(=O)(=O)Nc3cc(C(F)(F)F)ccc3Cl)c(C)cc21	inactive: 8.73%
Cc1ccc(-c2noc(-c3nnn(CC(=O)Nc4cccc(C(F)(F)F)c4)c3N)n2)cc1	inactive: -7.81%
CCOC(=O)c1c(C)oc2nc(C)nc(NCCCN3CCN(c4cc(Cl)ccc4C)CC3)c12	inactive: 10.3%
Cc1ccccc1Cn1c(=O)n(CCCCC(=O)NCc2ccccc2Cl)c(=O)c2ccccc21	inactive: 6.46%
O=C(NCc1ccccc1Cl)c1ccc(NC(=O)c2nsc3ccccc23)cc1	inactive: -9.55%
CC(C)CNC(=O)c1c(-c2ccccc2)c(-c2ccccc2)nn(C)c1=O	inactive: -5.93%
COc1ccc2c(c1)CC(NC(=O)Nc1ccc(NC(C)=O)cc1)CO2 (stereo unspecified)	inactive: 0.288%
CCOc1cc(C)c(C(C)C)cc1S(=O)(=O)n1ccnc1CC	inactive: -12.8%

SMILES	activity change, negative = cytotoxicity
CCOc1ccc(NC(=O)C2CCN(S(=O)(=O)c3ccc4c(c3)oc(=O)n4C)CC2)cc1	inactive: 3.71%
CCOc1ccc2nc(N3CCC(C(=O)Nc4ccc(Br)cc4F)CC3)sc2c1	inactive: -23.2%
O=C(CSc1nnc(-c2ccncc2)n1-c1ccccc1)Nc1ccc(Br)cc1	inactive: 3.68%
Cc1ccccc1OCC(=O)Nc1c(C)ccc2nsnc12	inactive: -15.7%
CC(C)c1ccc(S(=O)(=O)c2nnn3c2nc(N2CCOCC2)c2sccc23)cc1	inactive: -6.32%
CC1CCN(S(=O)(=O)c2ccc3c(ccn3CC(=O)NCc3ccc(N(C)C)cc3)c2)CC1	inactive: -20.1%
Cc1ccc(NC(=O)C2CCN(C(=O)c3cnn(-c4ccccc4)c3-n3cccc3)CC2)cc1	inactive: -9.68%
CCOC(=O)N1CCc2c(sc3c2c(=O)n(-c2ccc(CC)cc2)c(=O)n3CC(=O)c2ccccc2)C1	inactive: -20%
COc1ccc(CCC(=O)NCc2nc3cccnc3n2Cc2cccc(OC)c2)cc1	inactive: 9.36%
COc1ccc(Cl)cc1NC(=O)Cn1nc(C(F)(F)F)c2c1CCC2	inactive: 25.6%
CCCCc1nn2c(=O)cc(COC(=O)C(C)Oc3ccccc3)nc2s1 (stereo unspecified)	inactive: 7.1%
CC(NC(=O)c1ccc(CSc2nc3ccncc3n2Cc2ccc(F)cc2)cc1)c1ccccc1 (stereo unspecified)	inactive: -29.3%
Cc1cccc(OCCCSc2nc(-c3ccc(C(C)(C)C)cc3)nc3cc(=O)[nH]n23)c1C	inactive: 1.1%
COCCNC(=O)c1ccc2c(c1)N(Cc1ccc(C(F)(F)F)cc1)C(=O)c1ccccc1S2	inactive: -1.55%
CCCCCn1c(=O)[nH]c2cc(C(=O)NCc3ccc(F)cc3)ccc2c1=O	inactive: 8.82%
Cc1cccc(-n2c(=O)c3c(c4cc(C)ccc4n3C)n(CC(=O)Nc3ccccc3Cl)c2=O)c1	inactive: 3.98%
Cc1cc(Br)ccc1NC(=O)c1coc(=O)c2ccccc12	inactive: 4.45%
CC(C)c1ccccc1NC(=O)CSc1nnc(COc2ccccc2)o1	inactive: 23.6%
Cc1ccc(CNC(=O)CN(C)S(=O)(=O)c2ccc(Br)s2)cc1	inactive: -5.31%
Cc1oc2ncn(CC(C)C)c(=O)c2c1C(=O)Nc1cccc(C(F)(F)F)c1	inactive: -1.64%
O=C(Nc1ccc(Cl)c(Cl)c1)c1cc(S(=O)(=O)N2CCN(c3cccc(Cl)c3)CC2)ccc1F	inactive: -0.636%
COc1ccc(-c2cn(-c3ccc(C)cc3)c(S(=O)(=O)CC(=O)Nc3ccccc3)n2)cc1	inactive: -17.9%
CCOc1ccccc1CNC(=O)CCCN1C(=O)COc2ccc(C)cc21	inactive: -13.8%
CCCOc1ccc(C(=O)NCC(c2ccc(OC)cc2)N2CCCCC2)cc1 (stereo unspecified)	inactive: 11.6%
